The values that follow come from ChEMBL document CHEMBL4888484, “Replenishing the malaria drug discovery pipeline: Screening and hit evaluation of the MMV Hit Generation Library 1 (HGL1) against asexual blood stage Plasmodium falciparum ,using a nano luciferase reporter read-out” (2022).

Out of some 150,000 compounds screened, about 540 (0.36%) showed an effect of 50% or more. This is one part of the list.

The test deals with Plasmodium falciparum. Briefly: Primary screen in NF54 nanoGlo assay, in single point, at 2uM, 72h; a lower Z score goes with more inhibition. It is filed as functional, Erythrocyte. The following applies: timepoint 72 hour.
What is called % Inhibition is the relative decrease from the control value, in per cent. As for `COCC1CCN(C[C@H](O)c2cccc3ccccc23)CC1`, the “% Inhibition” value is on record as 6% and the Z score was -0.69.

Turning to `CS(=O)(=O)N1CCOc2ccc(CCC(=O)NCc3ccc(F)cc3)cc2C1`, the “% Inhibition” value is -7% and the Z score worked out at 0.85.

As to `CC1CN(c2ccc(F)cc2C#N)CC1N1CCOCC1` (stereo not drawn), the “% Inhibition” value was -6% and the Z score turned out to be 0.65.

As to `Cc1nc2c(c(NCCCc3nc(=O)[nH][nH]3)n1)CCCC2`, the “% Inhibition” value is listed as -3% and the Z score was 0.52.

With `Cc1ccc(C(=O)N2CC[C@H](CO)[C@H](NC(=O)c3cccnc3)C2)s1`, the “% Inhibition” value is -8% and the Z score is 1.06.

Take `CCN1C(=O)c2c(C(=O)NCc3ccccc3Cl)ncn2C[C@@]1(C)C(=O)NC1CCCC1`: the “% Inhibition” value was -10% and the Z score is 1.97.

For the molecule `C1CCCN(Cc2nc([C@H]3CCOC3)no2)CC1`, the “% Inhibition” value is -4% and the Z score is 0.69.

Regarding `Cc1nc(-c2csc(S(=O)(=O)Nc3ccc(F)c(F)c3)c2)sc1C(=O)N1CCCCC1`, the “% Inhibition” value was found to be 2% and the Z score is on record as -0.26.

`Cc1nccnc1N1CC(C)(C)[C@@](C)(O)C1`: the “% Inhibition” value is given as 2% and the Z score is -0.39.

Take `CCc1c(C(=O)N[C@@H](C)c2ncnn2CC)csc1C`: the “% Inhibition” value amounted to 3% and the Z score is given as -0.4.

`Cc1ccc(Cc2nnc(NC(=O)[C@@H]3COc4ccccc4O3)o2)cc1C`: the “% Inhibition” value is -14% and the Z score came to 1.63.

In the case of `NC(=O)c1nc(-c2ccc(Cl)cc2)nc2c1n(Cc1ccccc1)c(=O)n2-c1ccc(F)cc1`, the “% Inhibition” value is reported as -12% and the Z score is reported as 1.54.

As for `CCNC(=O)CCCC(=O)NC(C)(C)Cc1ccccc1Cl`, the “% Inhibition” value is recorded as -6% and the Z score came out at 0.92.

Consider `Cn1cccc1C(=O)N1CC2CN(S(=O)(=O)c3ccc(F)cc3)CC(C1)O2`, for which the “% Inhibition” value is listed as -9% and the Z score stood at 1.59.

`CCN=C(NC)NCCC1=CCCCC1`: the “% Inhibition” value is given as -3% and the Z score turned out to be 0.39.

Regarding `O=C(O)c1n[nH]cc1CN1CCc2onc(-c3cccc4ccccc34)c2C1`, the “% Inhibition” value was determined as 4% and the Z score is reported as -0.62.

As for `CC(C)c1ccnc(NCCCN2CCC[C@H](CO)C2)n1`, the “% Inhibition” value is 1% and the Z score is reported as -0.15.

With `CCCc1cnc(C)nc1N1CCN[C@H](C(=O)NC2CC2)C1`, the “% Inhibition” value is -3% and the Z score was found to be 0.33.

As for `COCc1nc(CNc2cc(-c3ccco3)ccc2F)cs1`, the “% Inhibition” value is -5% and the Z score was 0.57.

`O=C(Cn1cc(C(=O)c2ccncc2)c(=O)c2ccc(F)cc21)NCc1ccc(Cl)cc1`: the “% Inhibition” value came out at 4% and the Z score is listed as -0.47.

Take `CCCCC(=O)N1CCC(c2ccc(C)nc2)CC1`: the “% Inhibition” value is given as -4% and the Z score came to 0.55.

With `Cc1csc(CNC(=O)C2CCCCC2)n1`, the “% Inhibition” value worked out at 5% and the Z score is given as -0.73.

As to `CCOC(=O)[C@H](Cc1ccccc1)N(C)CC(=O)Nc1ccc(CN2CCOCC2)cc1`, the “% Inhibition” value was -8% and the Z score is given as 0.72.

In the case of `Cn1cccc1C(=O)CN1C(=O)c2ccccc2C1=O`, the “% Inhibition” value is listed as 21% and the Z score is given as -2.49.
